# The campaign covered roughly 410,000 compounds. About 5,000 (1.2%) were called active. The shares of active, inactive and inconclusive entries below differ from those in the screen. The call rests on the fitted dose curve; in most records, active means well fitted inhibition curve with a large enough effect; inconclusive means small, poorly fitted or top-dose-only effect; inactive means no such curve, though single readings can be large or run the other way. Potencies beside an inconclusive call are fits to weak or partial responses and may not hold up.
# Experiment: qHTS for Inhibitors of TGF-b; further: nearly all actives have a fitted effect of over 65% in size
# Conditions: HepG2 CAGA-GFP TGF-b/SMAD3 reporter, GFP fluorescence, 18 h, TGF-beta stimulated, 500 pg/mL final; series mostly up to 46.1 µM
# In short: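 Per well, imaged GFP fluorescence of HEPG2 CAGA-GFP cells gives the signal; cells get compound, then TGF-beta (500 pg/mL final), 18 h at 37 degrees C; %Activity versus -TGF-beta and +DMSO controls.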
# Potency means the concentration at half of the fitted maximal effect; tags describe the fitted curve by direction and shape.
row,Compound,Potency
1,O=C(CN1CCCCCC1)Nc1ccccc1OC(F)F,inactive
2,CCn1cc(C(C)NC(=O)COc2ccc(Cl)cc2C)c(C)n1 (stereo unspecified),inactive
3,CCOc1c2c(nc3ccc(Cl)cc13)CCC2,inactive
4,Cc1ccc(C)c(OCC(O)CN2CCN(CCN3C(=O)c4cccc5cccc(c45)C3=O)CC2)c1 (stereo unspecified),"inconclusive: 25.1 µM [inhibitor, single point]"
5,CC1CCc2sc(C(=O)NCC(c3ccco3)N3CCCCC3)cc2C1 (stereo unspecified),"inconclusive: 35.5 µM [inhibitor, single point]"
6,O=S(=O)(c1cccc(C(F)(F)F)c1)N1c2ccccc2-n2cccc2C1c1cccnc1 (stereo unspecified),"inconclusive: 28.2 µM [inhibitor, single point]"
7,CCOC(=O)/C(=C\c1cccc(O)c1)c1nc2sc(C)c(C)c2c(=O)[nH]1,"inconclusive: 8.91 µM [inhibitor, partial curve, poor fit]"
8,COc1cccc(C2=NOC(C(=O)Nc3cc(OC)c(OC)c(OC)c3)C2)c1 (stereo unspecified),"inconclusive: 0.631 µM [inhibitor, full curve, poor fit]"
9,COc1ccccc1-c1cc(C(F)(F)F)n2ncc(C(=O)N3CCc4ccccc4C3)c2n1,"inconclusive: 0.794 µM [inhibitor, partial curve, poor fit]"
10,Cc1ccc2[nH]c(C(=O)O)c(NC(=O)CN3CCN(c4cccc(C)c4C)CC3)c2c1,"inconclusive: 20 µM [inhibitor, partial curve, poor fit]"
11,Cc1cc(C=NCCCO)c(C)n1-c1cc(Cl)ccc1Cl,"inconclusive: 1.41 µM [inhibitor, full curve]"
12,C=CCn1c(SCC(=O)NCC2CCCO2)nc2scc(-c3ccc(OC)cc3)c2c1=O (stereo unspecified),inactive
13,Cc1ccsc1C1C2=C(CC(C)(C)CC2=O)Nc2ncnn21 (stereo unspecified),"inconclusive: 35.5 µM [inhibitor, single point]"
14,O=C1N[C@@H](Cc2ccccc2)COC(=O)[C@H](Cc2ccc(F)cc2)C/C=C\C[C@@H]1CC(=O)N(CCO)Cc1ccccc1,"inconclusive: 5.62 µM [inhibitor, full curve, poor fit]"
15,COc1ccc(Nc2cc(C(=O)NCc3ccccc3)c3ccccc3n2)cc1,"inconclusive: 14.1 µM [inhibitor, partial curve, poor fit]"
16,CCN1C[C@@H]2[C@@H]3C(=O)N(Cc4ccccc4)C(=O)[C@@H]3[C@](CC)(C1=O)N2C(=O)c1ccc(Br)cc1,"inconclusive: 12.6 µM [inhibitor, partial curve]"
17,CCNC(=S)NNC(=O)c1ccccn1,inactive
18,N#Cc1ccc(C(=O)Nc2cccc(NC(=O)c3ccco3)c2)c(F)c1,"inconclusive: 6.31 µM [inhibitor, partial curve]"
19,CC(C)OCCCn1c(=O)c2ccccc2n2c(-c3ccc(F)c(F)c3)nnc12,inactive
20,CCCCCCOc1ccc(N2C(=O)CC(S/C(N)=N/N=C(\C)c3cccs3)C2=O)cc1 (stereo unspecified),"inconclusive: 14.1 µM [inhibitor, single point]"
21,O=S1(=O)CCO[C@H]2Cc3ccccc3[C@H]2N1Cc1ccc(Cl)cc1,"inconclusive: 12.6 µM [inhibitor, single point]"
22,Cc1nc2ncnn2c(N2CCN(C(c3ccccc3)c3ccccc3)CC2)c1C,"inconclusive: 28.2 µM [inhibitor, partial curve, poor fit]"

row,Compound,Potency
1,CN1CCN(C(=O)CCN2C(=O)/C(=C\c3ccc(F)cc3)SC2=S)CC1,"inconclusive: 3.98 µM [inhibitor, full curve, poor fit]"
2,CCc1cc(SC#N)cc(C)c1N,"inconclusive: 35.5 µM [inhibitor, single point]"
3,Cc1[nH]c2ccc(C(=O)NCCc3ccccc3Cl)cc2c1C,"inconclusive: 35.5 µM [inhibitor, single point]"
4,CCc1cc(C(=O)NC(C)C2CCCO2)cs1 (stereo unspecified),"inconclusive: 35.5 µM [inhibitor, partial curve, poor fit]"
5,CN(C(=O)CN1CCN(c2cnn(-c3ccccc3)c(=O)c2Cl)CC1)C1CCS(=O)(=O)C1 (stereo unspecified),"inconclusive: 2.82 µM [inhibitor, single point]"
6,Cc1ccc(-c2c[n+](CC(=O)Nc3nc(-c4ccc(F)cc4)cs3)c3n2CCC3)cc1,"inconclusive: 35.5 µM [inhibitor, single point]"
7,Cc1ccccc1Cn1cc(NC(=O)c2cc(-c3ccc(Cl)cc3)on2)cn1,"inconclusive: 3.16 µM [inhibitor, single point]"
8,CC(=O)NC(CCCCNC(=S)NC1CCCCC1)C(=O)O (stereo unspecified),"inconclusive: 2.82 µM [inhibitor, single point]"
9,CC#CCOC(=O)c1c(C)nc2sc3c(c2c1N)CC[C@@H](O)C3,inactive
10,CC(=O)C1=C(c2ccc(C)cc2)N(C(C)=O)n2c(nnc2-c2ccccc2)S1,inactive
11,CC(CCc1ccccc1)NS(=O)(=O)c1ccccc1Cl (stereo unspecified),inactive
12,O=C(CC1C(=O)NCCN1Cc1cccc(F)c1)NC1CCCCCC1 (stereo unspecified),"inconclusive: 1 µM [inhibitor, partial curve]"
13,CCOc1cccc(C2c3c(oc4ccc(F)cc4c3=O)C(=O)N2CCOC)c1 (stereo unspecified),"inconclusive: 35.5 µM [inhibitor, single point]"
14,COc1cccc(Cn2cc(-c3cccc(C(F)(F)F)c3)nn2)c1,"inconclusive: 25.1 µM [inhibitor, single point]"
15,COc1ccc(CN2CCC(C(=O)N(C)CCc3ccc(OC)c(OC)c3)CC2)c(OC)c1,inactive
16,O=C(c1cc(S(=O)(=O)N2CCN(c3ccccc3)CC2)ccc1Cl)N1CCCCCCC1,"inconclusive: 28.2 µM [inhibitor, single point]"
17,FC(F)(F)c1cccc(NC(=S)N(CCCN2CCCC2)Cc2cccn2Cc2ccc(Cl)cc2)c1,"inconclusive: 25.1 µM [inhibitor, single point]"
18,O=C(CSc1nc2c([nH]c3ccccc32)c(=O)n1-c1cccc(C(F)(F)F)c1)N1CCCC1,inactive
19,O=C(Nc1ccc[n+](CC(=O)c2cccc3ccccc23)c1)c1ccccc1,"inconclusive: 17.8 µM [inhibitor, partial curve, poor fit]"
20,COc1ccc2cc(C(=O)N3CCCCCC3)sc(=O)c2c1OC,"inconclusive: 7.08 µM [inhibitor, full curve]"
21,O=C(NCC(O)c1ccccc1)c1ccc(Cl)c(S(=O)(=O)N2CCCC2)c1 (stereo unspecified),inactive
22,O=C(N/N=C/c1cccc(Oc2ccccc2)c1)c1ccccc1Br,"inconclusive: 31.6 µM [inhibitor, partial curve, poor fit]"

row,Compound,Potency
1,CSCCC(NC(=O)c1ccccc1Br)C(=O)N1CCN(C/C=C/c2ccccc2)CC1 (stereo unspecified),"inconclusive: 25.1 µM [inhibitor, single point]"
2,COC(=O)c1ccc(OC)c(CSc2nnc(COc3ccc(OC)cc3)o2)c1,inactive
3,Cc1cc(C)c([N+](=O)[O-])cc1-c1ccc(/C=N/c2c(-c3ccco3)nc3ccccn23)o1,inactive
4,COc1ccc(CCn2c(C3CCCCC3)nc3c(c(=O)c4ccccc4n3C)c2=O)cc1,"inconclusive: 5.62 µM [inhibitor, partial curve, poor fit]"
5,CCOc1ccc(C2c3c(oc4ccccc4c3=O)C(=O)N2Cc2ccc3c(c2)OCO3)cc1 (stereo unspecified),inactive
6,CN(C)c1ccc(C(=C2c3ccccc3-c3ccccc32)c2ccc(N(C)C)cc2)cc1,inactive
7,CCOC(=O)N1CCC(Nc2c(Nc3cccc(CC)c3)c(=O)c2=O)CC1,"inconclusive: 15.8 µM [inhibitor, single point]"
8,COc1ccc2[nH]c(C)c(CCNC(=S)Nc3ccccc3C)c2c1,"inconclusive: 35.5 µM [inhibitor, single point]"
9,COc1cc(NC(=O)c2cc([N+](=O)[O-])ccc2NC(=O)CNCc2ccccn2)cc(OC)c1,"inconclusive: 22.4 µM [inhibitor, single point]"
10,CCCN(C(=O)COc1cc(=O)n(CC)c2ccccc12)c1ccc(C(C)C)cc1,"inconclusive: 25.1 µM [inhibitor, single point]"
11,CN1C(=O)/C(=C/c2cccc(Cl)c2)Sc2ccc(C(=O)N3CCCC3)cc21,"inconclusive: 3.55 µM [inhibitor, single point]"
12,CC(C)c1ccc(NC(=O)CCS(=O)(=O)c2cccc3nonc23)cc1,inactive
13,Cc1ccc(NC(=O)Cc2ccsc2)cc1Cl,"inconclusive: 10 µM [inhibitor, partial curve, poor fit]"
14,O=[N+]([O-])c1cn(Cc2ccccc2)cn1,"inconclusive: 5.62 µM [inhibitor, single point]"
15,Cc1ccc(NCc2ccccc2O)c(C)c1,"inconclusive: 35.5 µM [inhibitor, single point]"
16,Cc1ccc(CCNC(=O)c2ccc(CNS(=O)(=O)c3ccccc3)cc2)cc1,inactive
17,NC(=O)CC[C@H](NC(=O)c1ccc(F)cc1)C(=O)OCC(=O)NCc1ccc2c(c1)OCO2,inactive
18,Cc1ccccc1CNC(=O)c1ccc(CSc2nc3cccnc3n2Cc2ccccc2)cc1,inactive
19,Cc1cccc(-n2c(Cc3ccccc3)nnc2SCc2ccc([N+](=O)[O-])cc2)c1,"inconclusive: 10 µM [inhibitor, partial curve, poor fit]"
20,O=C(CN1CCC(C(=O)c2ccc(F)cc2)CC1)Nc1ccccc1,"inconclusive: 3.55 µM [inhibitor, full curve, poor fit]"
21,O=C(COc1ccc(C(=S)N2CCCC2)cc1)Nc1ccccc1C(F)(F)F,inactive
22,OC(CN1CCCCCC1)CN(c1ccccc1)c1ccccc1 (stereo unspecified),"inconclusive: 15.8 µM [inhibitor, partial curve]"

# — PubChem BioAssay AID588855 (National Center for Advancing Translational Sciences (NCATS), 2011)
